Here are results for 2 molecules from patent US20100150918A1 (MICROMET, published 2010).

The experiment concerns the target T1, 1-27 CD3-Fc (human).
T1 construct: also called 27 aa huCD3E; human CD3 epsilon (aa 1-27)-Fc fusion protein
The experiment in a line: SPR (Biacore), 1-27 CD3-Fc immobilised.

B1: EGFR-21-63 LH × F7O HLP (bispecific antibody)
chain: DIVLTQSPASLPVSLGQRATISCRASQSVSSSTYSYIHWYQQKPGQPPKLLITYASNLESGVPARFSGSGSGTDFTLDIHPVEEDDSSTYYCQHSWEIPFTFGSGTKLEIKGGGGSGGGGSGGGGSQVQLQQSGPDLVKPGASVKMSCKASGHTFTDCVIIWVKQRAGQGLEWIGQIYPGTGRSYYNEIFKGKATLTADKSSNTVHIQLSSLTSEDSAVYFCALSTLIHGTWFSYWGQGTLVTVSSGGGGSEVQLLESGGGLVQPGGSLKLSCAASGFTFNVYAMNWVRQAPGKGLEWVARIRSKYNNYATYYADSVKKRFTISRDDSKNTAYLQMNNLKTEDTAVYYCVRHGNFGNSYISWWAYWGQGTLVTVSSGGGGSGGGGSGGGGSELVVTQEPSLTVSPGGTVTLT[about 80 residues left out here]FGGGTKLTVL
notes: also called EGFR LH × F7O HLP
For B1, the Kd was 1010 nM.

B2: EGFR-21-63 LH × H1E HLP (bispecific antibody)
chain: DIVLTQSPASLPVSLGQRATISCRASQSVSSSTYSYIHWYQQKPGQPPKLLITYASNLESGVPARFSGSGSGTDFTLDIHPVEEDDSSTYYCQHSWEIPFTFGSGTKLEIKGGGGSGGGGSGGGGSQVQLQQSGPDLVKPGASVKMSCKASGHTFTDCVIIWVKQRAGQGLEWIGQIYPGTGRSYYNEIFKGKATLTADKSSNTVHIQLSSLTSEDSAVYFCALSTLIHGTWFSYWGQGTLVTVSSGGGGSEVQLLESGGGLEQPGGSLKLSCAASGFTFNSYAMNWVRQAPGKGLEWVARIRSKYNNYATYYADSVKGRFTISRDDSKNTAYLQMNNLKTEDTAVYYCVRHGNFGNSYLSFWAYWGQGTLVTVSSGGGGSGGGGSGGGGSELVVTQEPSLTVSPGGTVTLT[about 80 residues left out here]FGGGTKLTVL
notes: also called EGFR LH × H1E HLP
Molecule B2 registered a Kd of 2540 nM. Against the preceding molecule, the Kd is about 2.5-fold higher.

In general, Kd refers to the equilibrium constant for the complex coming apart. Lower therefore signals a tighter complex.
